Data on seven sequences can be found in patent US20100324829A1, “METHOD OF SELECTING HLA-DP4 LIGANDS AND THE APPLICATIONS THEREOF” (priority 2001, published 2010).

The target of this assay is T1, DP401 encoded by the DPA1*0103/DPB1*0401 allele (Homo sapiens, UniProt P04440+P20036).
T1 sequence (P20036 29-260): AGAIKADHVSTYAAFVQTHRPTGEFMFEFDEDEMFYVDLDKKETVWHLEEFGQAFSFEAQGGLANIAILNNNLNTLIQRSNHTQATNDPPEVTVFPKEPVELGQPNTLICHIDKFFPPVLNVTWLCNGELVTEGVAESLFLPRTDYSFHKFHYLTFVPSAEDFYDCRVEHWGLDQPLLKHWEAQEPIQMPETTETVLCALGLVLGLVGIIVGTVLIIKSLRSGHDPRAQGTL
T1 sequence (P04440 30-258): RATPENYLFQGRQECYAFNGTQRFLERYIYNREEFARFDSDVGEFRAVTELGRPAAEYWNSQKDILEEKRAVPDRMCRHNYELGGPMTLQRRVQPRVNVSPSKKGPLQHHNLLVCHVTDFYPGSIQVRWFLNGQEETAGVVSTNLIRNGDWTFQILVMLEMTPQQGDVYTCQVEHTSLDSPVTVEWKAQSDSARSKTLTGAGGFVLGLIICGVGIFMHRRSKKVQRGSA
As to conditions: pH 5, 24 h at 37° C.

Read-outs that look alike come from different tables or passages of the source.

On to AAYAAAKAAALAA [bYKL], for which the “RF = fluorescence value in the presence of DP4/fluorescence value in the absence of DP4” value worked out at 4.8 (biotinylated peptide 10^−6 M), 3.2 (biotinylated peptide 10^−7 M) and 3 (biotinylated peptide 10^−8 M).

As to FNNFTVSFWLRVPKVSA [bTT 947-963], the “RF = fluorescence value in the presence of DP4/fluorescence value in the absence of DP4” value (biotinylated peptide 10^−6 M) was 1.7, the “RF = fluorescence value in the presence of DP4/fluorescence value in the absence of DP4” value (biotinylated peptide 10^−7 M) was 3.6 and the “RF = fluorescence value in the presence of DP4/fluorescence value in the absence of DP4” value (biotinylated peptide 10^−8 M) was determined as 2.7.

On to GPGAPADVQYDLYLNVANRR [bIL3 127-146], for which the “RF = fluorescence value in the presence of DP4/fluorescence value in the absence of DP4” value by setting is: (biotinylated peptide 10^−6 M) 10; (biotinylated peptide 10^−7 M) 20; (biotinylated peptide 10^−8 M) 17.3.

GVQIVRQIRSGERFLKIWSQ [bNS-p2]: the “RF = fluorescence value in the presence of DP4/fluorescence value in the absence of DP4” value runs as follows: (biotinylated peptide 10^−6 M) 1; (biotinylated peptide 10^−7 M) 4.2; (biotinylated peptide 10^−8 M) 7.8.

On to IAFNSGMEPGVVAEKV [bMT 451-466], for which the “RF = fluorescence value in the presence of DP4/fluorescence value in the absence of DP4” value is 5.5 (biotinylated peptide 10^−6 M), 4 (biotinylated peptide 10^−7 M) and 2 (biotinylated peptide 10^−8 M).

Consider PKYVKQNTLKLAT [bHA 306-318], for which the “RF = fluorescence value in the presence of DP4/fluorescence value in the absence of DP4” value is, setting by setting: (biotinylated peptide 10^−6 M) 4.9; (biotinylated peptide 10^−7 M) 4.7; (biotinylated peptide 10^−8 M) 2.7.

As to RELWWVFYAGDRALEEPHAE [bUL21 283-302], the “RF = fluorescence value in the presence of DP4/fluorescence value in the absence of DP4” value reads like this: (biotinylated peptide 10^−6 M) 8.3; (biotinylated peptide 10^−7 M) 13.3; (biotinylated peptide 10^−8 M) 10.1.
